Experimental data taken from publication PMC12040169 (PLOS Biology, 2025).
Some of the results follow.

Each compound was assayed on T1, C. trachomatis L2/434/Bu expressing GFP (CTL2-GFP). Conditions: total inclusion area; 28.5 h, 10 µM; inhibitor.
T1 construct: L2/434/Bu GFP intracellular growth in HeLa cells
Parameters: species or system HeLa; C. trachomatis total inclusion area by high-content imaging, normalised to DMSO
How it was run: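 High-content images of fixed, Hoechst-stained infected cultures supply inclusion area and count (growth) plus nuclei number (viability), complementing bulk GFP/resorufin fluorescence. MIC determination is unchanged from the primary assay.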

Going from `O=C(NCCCn1cc(Cl)cn1)N1CCCN(Cc2cccs2)CC1` [CBK307279] to `Cc1cnn(CC2CCCCN2CC(=O)NCc2ccccn2)c1` (stereo not shown) [CBK304041], the “% of control remaining” value rises from 56.439 to 92.5006.

Compared with `CC(=O)Nc1ccc(-c2ccc(C(=O)NCc3cccnc3)cn2)cc1` [CBK158842], `CN(C(=O)c1c[nH]nc1-c1ccc(CNC(=O)c2cccc(Cl)c2)cc1)c1ccccc1` [CBK285597] is lower in “% of control remaining” value: 79.7979 for the first, 77.8031 for the second.

Going from `CN(Cc1ccccc1)c1nccnc1-c1ccc(CO)cc1` [CBK038067] to `O=C(NCCOc1ccccc1)c1nccnc1-c1ccc(COc2ccc3c(c2)CCCC3)cc1` [CBK050852], the “% of control remaining” value rises from 114.082 to 130.329.

First: OC1CSc2nc(-c3cnccn3)nn2C1 (stereo not shown) [CBK027096]
Second: O=C(O)c1cccc(-c2nccnc2NCC2CC2)c1 [CBK038043]
The “% of control remaining” value of the first is higher: 95.9745 for the first, 80.899 for the second.

Compared with `CCOC(=O)C1=NN(C(=O)c2ccc(Cl)cc2)C(O)(C(C)(C)C)C1` (stereo not shown) [CBK026308], `CCOC(=O)CSc1nnc(-c2ccc(Cl)cc2)o1` [CBK068845] is higher in “% of control remaining” value: 80.2275 for the first, 96.6659 for the second.

Going from `S=c1[nH]nnn1-c1ccc(Cl)c(Cl)c1` [CBK016327] to `OCCNC(=S)Nc1ccc(Cl)cc1Cl` [CBK265330], the “% of control remaining” value rises from 108.065 to 113.075.

Compared with `O=c1c2cc(Br)cc(F)c2ncn1CCC1CCCO1` (stereo not shown) [CBK306451], `O=C(O)CNC(=O)[C@H]1CC[C@H](Cn2cnc3ccccc3c2=O)CC1` [CBK286714] is lower in “% of control remaining” value: 55.2557 for the first, 34.005 for the second.

First: Cc1cc(CCCC(=O)N2CCCC(c3ccc(Nc4ncccn4)cn3)C2)ccc1F (stereo not shown) [CBK286003]
Second: O=C(c1cc(-c2cccnc2)[nH]n1)N1CCC(c2ccccc2)C1 (stereo not shown) [CBK281849]
The “% of control remaining” value of the first is higher: 126.669 for the first, 108.288 for the second.

Going from `Fc1cc(CN2CCC3(CC2)OCCc2c3[nH]c3ccc(Br)cc23)cc(F)c1F` [CBK039943] to `O=C(Cc1ccsc1)N1CCCC2(CCN(Cc3ccccc3)C2)C1` (stereo not shown) [CBK136868], the “% of control remaining” value rises from 37.0967 to 116.423.

Compared with `C(=C\c1ccccc1)/CN1CCN(c2ncccn2)CC1` [CBK261909], `NC(=O)Nc1ccc(C(=O)N2CCN(c3ccccc3)CC2)cc1` [CBK306392] is lower in “% of control remaining” value: 88.3722 for the first, 72.1334 for the second.

First: O=C1NC2(CCN(C(=O)Cc3ccc(F)cc3)CC2)Oc2ccc(-c3ccccc3)cc21 [CBK115832]
Second: CC(=O)Nc1ccc(-c2ccc(COC3CCN(C(=O)c4ccc(F)cc4F)CC3)cc2)cc1 [CBK149216]
The “% of control remaining” value of the first is higher: 94.2618 for the first, 87.8415 for the second.

Going from `COc1cc(Nc2cc(-c3ccc(NC(C)=O)cc3)ncn2)cc(OC)c1OC` [CBK090710] to `COc1ccc(C(=O)NC(c2ccc(OC)c(OC)c2)c2cc(Cl)c3cccnc3c2O)cc1` (stereo not shown) [CBK263992], the “% of control remaining” value falls from 123.513 to 109.153.

Compared with `Cc1cccc(NCC2CCN(CC(=O)Nc3cc(C)on3)C2)n1` (stereo not shown) [CBK306118], `Cc1cc(NC(=O)CS(=O)(=O)Cc2cccc(C(F)(F)F)c2)no1` [CBK304520] is lower in “% of control remaining” value: 49.7991 for the first, 25.5278 for the second.

Compared with `O=C(O)C1CCN(C2C(=O)Nc3ccc(Cl)cc3C2c2ccccc2)CC1` (stereo not shown) [CBK287210], `Cc1cc(C(=O)N2CCC(Cc3ccccc3)CC2)n[nH]1` [CBK200187] is lower in “% of control remaining” value: 97.8473 for the first, 90.8184 for the second.

Compared with `O=C(O)c1cccc(S(=O)(=O)Nc2nc3c(Cl)cccc3s2)c1` [CBK161135], `O=C(Nc1ccccc1)c1cccc(S(=O)(=O)NCc2cccs2)c1` [CBK058153] is lower in “% of control remaining” value: 98.3309 for the first, 57.5384 for the second.

Compared with `CCc1ccccc1C(=O)N1CCCCC1CC` (stereo not shown) [CBK081556], `O=C(c1ccccc1F)N1C[C@H](c2ccsc2)[C@H]2CN(Cc3cccs3)CC[C@H]21` [CBK285657] is higher in “% of control remaining” value: 53.9418 for the first, 92.64 for the second.

Going from `O=C(Nc1nn(Cc2c(F)cccc2Cl)cc1Cl)c1cccnc1` [CBK268154] to `O=C(Nc1cccnc1)c1cccc(S(=O)(=O)N2CCCC2)c1` [CBK269846], the “% of control remaining” value rises from 64.9567 to 90.0812.

First: CCN(CC)c1c(C)nc2ccc(C(=O)NC3CCN(C)CC3)cn12 [CBK145965]
Second: Cc1cc(C)n(C2CCN(Cc3c(C)nc4c(C)cccn34)CC2)n1 [CBK281617]
The “% of control remaining” value of the first is higher: 95.811 for the first, 56.9977 for the second.

First: Cc1ccc(-c2c[nH]c([C@@H]3COCCN3Cc3csnn3)n2)cc1 [CBK289302]
Second: Cc1ccc(-c2noc(CNC(=O)CSc3ccccc3)n2)cc1 [CBK270199]
The “% of control remaining” value of the first is higher: 116.613 for the first, 111.702 for the second.

Compared with `O=C(c1cnc[nH]1)N1CCn2nc(C(O)Cc3ccccc3)cc2C1` (stereo not shown) [CBK307558], `O=C(O)CSc1nccn1Cc1ccccc1` [CBK262215] is higher in “% of control remaining” value: 91.8103 for the first, 107.251 for the second.

Going from `Cc1ccccc1Cn1c(CN2CCN(c3ccccc3)CC2)nc2c1c(=O)n(C)c(=O)n2C` [CBK269488] to `CCN1CCN(c2ccc(N3C(=O)N[C@@H](C(C)C)C3=O)cc2)CC1` [CBK287953], the “% of control remaining” value rises from 81.0993 to 102.349.

First: COc1ccc(C(C)C)cc1-c1cncc(N[C@@H](CO)C(C)C)n1 [CBK065356]
Second: CC(=O)Nc1cccc(-c2cncc(NC3CCC(O)CC3)n2)c1 (stereo not shown) [CBK065404]
The “% of control remaining” value of the first is higher: 110.977 for the first, 96.9868 for the second.

Going from `Cc1ccc(S(=O)(=O)N2CC=CCC2)cc1` [CBK058443] to `COc1ccc(NC(=O)CN2CCN(S(=O)(=O)N(C)C)CC2)cc1` [CBK267465], the “% of control remaining” value rises from 81.404 to 91.7391.

Going from `O=C(NC1CCCCC1)c1ccccc1NC(=O)C1CCCCC1C(=O)O` (stereo not shown) [CBK267675] to `Cc1nccn1CC(=O)N1CCCC1(C)C(=O)NC1CCCC1` (stereo not shown) [CBK281539], the “% of control remaining” value rises from 81.4695 to 99.1965.

First: CCOC(=O)N1CCN(Cc2ccc(O)c(OC)c2)CC1 [CBK261873]
Second: CC(C)(C)C(=O)N1CCN(Cc2ccc3c(c2)OCO3)CC1 [CBK074842]
The “% of control remaining” value of the first is higher: 100.384 for the first, 90.5061 for the second.

Compared with `OCCOc1ccc(OCCOc2nccnc2N2CCNCC2)cc1` [CBK014349G], `CCCOc1ccc(C(=O)C(CN(CC)CC)Oc2ccccc2)cc1` (stereo not shown) [CBK011944C] is lower in “% of control remaining” value: 107.798 for the first, 87.7723 for the second.

Going from `COc1c(Cl)cc(Cl)cc1CNC(C)(C)CO` [CBK270212C] to `CN(C)CCCNC(=O)c1cc(C(C)(C)C)nn1Cc1ccc(Cl)cc1Cl` [CBK107286], the “% of control remaining” value rises from 60.4125 to 71.0014.

Compared with `Cc1nc2nc(-c3ccc(F)cc3F)cn2nc1C` [CBK284564], `COc1cc(CNc2nn[nH]n2)ccc1OCc1ccc(F)cc1Cl` [CBK269536] is higher in “% of control remaining” value: 46.5479 for the first, 94.5321 for the second.

First: O=C(O)COc1ccc2c(=O)c(Oc3ccccc3Br)c(C(F)(F)F)oc2c1 [CBK263747]
Second: COc1cccc(C(=O)COC(=O)c2cc(-c3ccccc3)nc3ccc(Br)cc23)c1 [CBK265143]
The “% of control remaining” value of the first is lower: 96.3021 for the first, 110.51 for the second.

Going from `COC(=O)N/N=C(\C)c1ccc(Br)s1` [CBK027886] to `COc1ccc2nc(Nc3nc(C)c(C(C)=O)s3)sc2c1` [CBK287483], the “% of control remaining” value rises from 30.5326 to 111.694.

First: CCCn1cnnc1CN(C)C(=O)NCCc1nc2ccccc2s1 [CBK307663]
Second: Cc1cccc(-c2ocnc2C(=O)NCCCn2ccnc2)c1 [CBK282418]
The “% of control remaining” value of the first is higher: 69.7611 for the first, 35.3652 for the second.

Compared with `c1cn2cc(-c3ccoc3)nc(NC3CC3)c2n1` [CBK066720], `CN(C)CCNC(=O)c1ccc(-c2cnc3[nH]c(=O)n(C4CCCC4)c3n2)cc1` [CBK064957] is lower in “% of control remaining” value: 106.248 for the first, 83.3198 for the second.

Compared with `Cc1cc(Cl)ccc1OCC(=O)Nc1ccc(O)cc1C(=O)O` [CBK131706], `NS(=O)(=O)c1cc(C(=O)OCC(=O)c2ccccc2)c(Cl)cc1Cl` [CBK264542] is lower in “% of control remaining” value: 123.763 for the first, 100.499 for the second.

First: CN(C)c1ccc(-c2nc(-c3ccco3)cnc2N)cc1 [CBK063934]
Second: COc1cccc(CN(Cc2ccco2)Cc2[nH]cnc2C)c1 [CBK282495]
The “% of control remaining” value of the first is lower: 53.224 for the first, 119.575 for the second.

First: O=C(CSCc1nc(O)c2c3c(sc2n1)CCCC3)Nc1ccc(F)cc1 [CBK265568]
Second: O=C(Cn1ncn2nc(-c3ccccc3)cc2c1=O)Nc1ccc(F)cc1 [CBK287759]
The “% of control remaining” value of the first is higher: 100.112 for the first, 89.9769 for the second.

Compared with `CCOc1ccc2nc(NC3=NC(CC(=O)O)C(=O)N3)nc(C)c2c1` (stereo not shown) [CBK263120], `CCc1ccc2c(c1)C(CCNC(=O)c1cscc1C(F)(F)F)C(=O)N2` (stereo not shown) [CBK304728] is lower in “% of control remaining” value: 99.7867 for the first, 97.4938 for the second.

Going from `CC1CCN(S(=O)(=O)N2CCNCC2)CC1` [CBK269836C] to `CC(C)(C)OC(=O)N1CCN(CCn2cc(C(=O)O)nn2)CC1` [CBK287112], the “% of control remaining” value rises from 102.24 to 111.23.

Going from `N#CCCn1cc(C(=O)N2CCCCC2)c(-c2cccc(Br)c2)n1` [CBK306202] to `O=C(Cn1cc(-c2ccc(CN3CCCCC3)cc2)nn1)NCc1ccc(OC(F)F)cc1` [CBK167514], the “% of control remaining” value rises from 55.1984 to 86.8432.

Compared with `NNC(=O)CNS(=O)(=O)c1ccccc1` [CBK261967], `Cc1cc(I)ccc1S(=O)(=O)NCc1ccccn1` [CBK262155] is lower in “% of control remaining” value: 111.943 for the first, 91.3999 for the second.

First: COCCN1C(=O)C2(CC(=O)N(CC(=O)C(C)(C)C)C2=O)c2ccccc21 (stereo not shown) [CBK075324]
Second: O=C(c1cscn1)N1CCc2ccccc2C1 [CBK200342]
The “% of control remaining” value of the first is lower: 51.5881 for the first, 90.6966 for the second.

Compared with `CCC(CN1CCOCC1)NC(=O)Cc1ccc2c(c1)CCC2` (stereo not shown) [CBK282810], `Cc1ccccc1N1CCN(C(=O)c2c(C)oc3cc4c(C(=O)N5CCN(c6ccccc6C)CC5)c(C)oc4cc23)CC1` [CBK264833] is higher in “% of control remaining” value: 56.3443 for the first, 107.959 for the second.
